Experimental data reported in PubChem BioAssay AID686978 (National Center for Advancing Translational Sciences (NCATS), 2013).
Values joined by “and” are separate entries in the source; they are usually repeats but may differ in a detail not shown here. Equal values may be shown once. The campaign covered roughly 420,000 compounds. About 64,000 (15%) were called active. Inconclusive results, whose numbers are uncertain, are shown with a selection of clear calls. The call rests on the fitted dose curve; in most records, active means well fitted inhibition curve with a large enough effect; inconclusive means small, poorly fitted or top-dose-only effect; inactive means flat fitted curve, though single readings scatter. Potencies of inconclusive entries are doubtful fits and often do not repeat.

assay: qHTS for Inhibitors of human tyrosyl-DNA phosphodiesterase 1 (TDP1): qHTS in cells in absence of CPT; settings: DT40 Tdp1-/- hTDP1 cells, no CPT, ATP luminescence, 48 h; activity change, negative = growth inhibition: at 46.2 µM (top of the series) unless noted; further: nearly all actives have a fitted effect of over 55% in size
Summary of the method: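 Chicken DT40 Tdp1-/- cells stably complemented with human TDP1 were seeded at 400 cells/well with DMSO in place of 20 nM camptothecin. After compound pinning, cells grew at least 48 hr at 37 °C; viability read by CellTiter-Glo luminescence.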
On the % scale 0 is the no-effect control and ±100 the full control effect; potency means the concentration at half of the fitted maximal effect; tags describe the fitted curve by direction and shape.

Row | SMILES | Potency | activity change, negative = growth inhibition
1 | CCOC(=O)N1CCc2cc(OC)c(OC)c3c2c1cc1cc(OC)c(OC)cc13 | active: 11.6 µM | –
2 | O=C(CNC(=O)C1COc2ccccc2O1)N/N=C/c1cc(Br)c(O)c(Br)c1 (centres undefined) | inconclusive: 29.1 µM [inhibitor, single point] | –
3 | NC(=O)c1ccc(-n2nnnc2SCc2ccccc2)cc1 | inconclusive: 29.1 µM [inhibitor, single point] | –
4 | CC1Cc2cc(S(=O)(=O)NCc3ccccc3)ccc2N1C(=O)C1CCC1 (centres undefined) | active: 8.2 µM and active: 7.31 µM | –
5 | CCOC1=C2CN(S(=O)(=O)c3ccc(C)cc3)[C@H](c3ccccc3)C[C@@H]2N(S(=O)(=O)c2ccc(C)cc2)[C@H](c2cccc(C)c2)C1 | inactive | –
6 | Cc1ccc2c(c1)C(=O)C1(O)CCN(c3ccccc3)C1=N2 (centres undefined) | active: 6.31 µM | –
7 | COc1ccc(NC(=O)N2CCN(S(C)(=O)=O)CC2)cc1 | inconclusive: 29.1 µM [inhibitor, single point] | –
8 | CC(=O)Nc1ccc(S(=O)(=O)N[C@@H](C)C(=O)N2CCN(c3ccccn3)CC2)cc1 | inactive | –
9 | O=C(CC12CC3CC(CC(C3)C1)C2)Nc1ccc2c(c1)COC2=O | inconclusive: 29.1 µM [inhibitor, single point] | –
10 | CC(C)c1nc2oc3c(NCCO)ncnc3c2c2c1COC(C)(C)C2 | inconclusive: 8.2 µM [inhibitor, partial curve] | –
11 | CN(C)N1C(=O)/C(=C/c2ccco2)SC1=Nc1ccccc1 | inconclusive: 14.6 µM [inhibitor, partial curve, poor fit] | –
12 | Cc1cc2c(cc1C)NC(C)CC(=O)N2 (centres undefined) | inactive | –
13 | Cc1ccc(NC(=O)CNC(=O)c2ccco2)cc1Cl | inactive | –
14 | O=C(CN(C(=O)CNS(=O)(=O)c1ccccc1)c1ccc2c(c1)OCCO2)NC1CCCCC1 | inconclusive: 18.4 µM [inhibitor, single point] | –
15 | CCOC(=O)N/N=C/C=C/c1ccccc1 | inactive | –
16 | O=C1C=C(c2cccc3c2sc2ccccc23)C[C@@H](c2ccc(F)cc2)C1 | inconclusive: 25.9 µM [inhibitor, single point] | –
17 | CC(=O)c1ccc(NC(=S)Nc2cccc3ccccc23)cc1 | inactive | –
18 | CCOc1cc(CNc2ccc(S(N)(=O)=O)cc2)ccc1OCC(=O)NC(C)(C)C | inconclusive: 29.1 µM [inhibitor, single point] | –
19 | CCOC(=O)C1(CCCc2ccccc2)CCN(C(=O)COC)CC1 | inactive | –
20 | CCOC(=O)c1[nH]c2ccc(Br)cc2c1NC(=O)CCN1CCN(C(=O)OCC)CC1 | inconclusive: 18.4 µM [inhibitor, single point] | –
21 | O=C(COc1ccccc1)Nc1c(C(=O)N2CCC(N3CCCCC3)CC2)oc2ccccc12 | inconclusive: 10.3 µM [inhibitor, partial curve] | –
22 | COC(=O)C1=CN(c2ccc(F)cc2)C=C(C(=O)OC)C1c1ccc([N+](=O)[O-])cc1 | inconclusive: 20.6 µM [inhibitor, single point] | –

Row | SMILES | Potency | activity change, negative = growth inhibition
23 | CC1CCN(Cc2cc(=O)oc3ccc(C(C)C)cc23)CC1 | inconclusive: 18.4 µM [inhibitor, partial curve] | –
24 | COc1ccc(Nc2nc(N)nc(CCl)n2)cc1 | inconclusive: 29.1 µM [inhibitor, single point] | –
25 | COc1ccccc1NC(=O)Cn1ncc2c1-c1ccccc1OC2 | inconclusive: 20.6 µM [inhibitor, single point] | –
26 | CCCCN1CCCCC1(C)C(=O)NCc1ccc2c(c1)OCO2 (centres undefined) | inconclusive: 23.1 µM [inhibitor, single point] | –
27 | O=C(c1ccc2c(=O)n(CC3CCCO3)c(=S)[nH]c2c1)N1CCN(C(=O)c2ccco2)CC1 (centres undefined) | inconclusive: 15.8 µM [inhibitor, single point] | –
28 | COc1ccc(-c2nn(-c3ccccc3)cc2C(=O)Nc2nccs2)cc1OC | inconclusive: 23.1 µM [inhibitor, single point] | –
29 | CCOc1ccccc1NC(=S)N1CCN(c2nc(-c3cccc(OC)c3)cs2)CC1 | inconclusive: 29.1 µM [inhibitor, single point] | –
30 | CN(C)c1nc(N)nc(CSc2nnnn2-c2cccc3ccccc23)n1 | inconclusive: 8.2 µM [inhibitor, full curve, poor fit] | –
31 | COc1ccc(C(=O)NCc2nnc(SCC(=O)Nc3nc4ccccc4s3)o2)cc1 | inconclusive: 25.9 µM [inhibitor, single point] | –
32 | Cc1cc(C(=O)OCC(=O)N2CC(=O)Nc3ccccc32)c(C)n1-c1ccc(F)cc1 | – | inconclusive: -33.3% [inhibitor]
33 | O=C(NC1CC1)C1=C[C@@H](C2CC2)C[C@@H](OCc2ccc(CO)cc2)O1 | inactive | –
34 | O=[N+]([O-])c1ccc(NCCNCCOc2nonc2-c2ccccc2)c([N+](=O)[O-])c1 | inconclusive: 29.1 µM [inhibitor, single point] | –
35 | CCN(Cc1nc(-c2cccc(C)c2)no1)C(=O)c1ccco1 | inactive | –
36 | N#Cc1c(N2CCN(C(=O)c3ccccc3)CC2)nc(-c2ccccc2)c2c1CCCC2 | inconclusive: 29.1 µM [inhibitor, single point] | –
37 | Cc1cc(-c2csc3nc[nH]c(=S)c23)cc(C)c1C | active: 5.17 µM | –
38 | COc1ccc(-c2nc3c(c(SCC(=O)N4CCOCC4)n2)Cc2c(CO)cnc(C)c2O3)cc1 | active: 10.3 µM | –
39 | CC(=O)Nc1cc([N+](=O)[O-])ccc1N1CCOCC1 | inactive | –
40 | CCNC(=O)C1CCCN(C(=O)c2cccs2)CC1 (centres undefined) | inactive | –
41 | COc1cc(OC)cc(C(=O)NC(C)CCc2ccccc2)c1 (centres undefined) | inconclusive: 18.4 µM [inhibitor, single point] | –
42 | OC[C@@H]1CN(Cc2ccncc2)C[C@H](n2cnc3c(N4CCCC4)ncnc32)O1 | inconclusive: 20.6 µM [inhibitor, single point] | –
43 | CCCCSc1nc(-c2cccc(OC)c2)nc2c1Cc1c(CO)cnc(C)c1O2 | inconclusive: 10.3 µM [inhibitor, partial curve] | –
44 | COc1c2occc2c(OC)c2c(=O)cc(C)oc12 | inactive and inconclusive: 16.4 µM [inhibitor, single point] and inconclusive: 5.7 µM [inhibitor, partial curve, poor fit] | –

Row | SMILES | Potency | activity change, negative = growth inhibition
45 | Cn1c(C(=O)NCCCN2CCOCC2)cc2c(=O)n(C)c3ccccc3c21 | inconclusive: 25.9 µM [inhibitor, single point] | –
46 | CC1CN(C(=O)c2cccc(S(=O)(=O)N3CCN(c4ccc(F)cc4)CC3)c2)CC(C)O1 (centres undefined) | inconclusive: 29.1 µM [inhibitor, single point] | –
47 | COc1cc(Br)c(C2C(C#N)=C(N)Oc3n[nH]c(-c4cccnc4)c32)cc1OC (centres undefined) | inconclusive: 29.1 µM [inhibitor, single point] | –
48 | CC(C)(O)CC[C@@H](O)[C@](C)(O)C1CC[C@@]2(O)C3=CC(=O)[C@]4(O)C[C@@H](O)[C@@H](O)C[C@]4(C)C3CC[C@]12C (some centres undefined) | inconclusive: 29.1 µM [inhibitor, partial curve, poor fit] | –
49 | COc1ccc(/C(O)=C/C(=O)C(=O)Nc2c(C)n(C)n(-c3ccccc3)c2=O)cc1 | inactive | –
50 | COc1ccc2[nH]cc(CCNc3ccnc(-c4ccoc4)n3)c2c1 | inconclusive: 29.1 µM [inhibitor, single point] | –
51 | CC1(C)S[C@@H]2[C@H](NC(=O)Cc3ccccc3)C(=O)N2[C@H]1C(=O)O (tested in a mixture with another compound) | – | inconclusive: -30.9% [inhibitor]
52 | CCOC(=O)C1=C(N)n2c(s/c(=C\c3cccnc3)c2=O)=C(C#N)C1c1cccnc1 (centres undefined) | inactive | –
53 | CCNC(=S)N/N=C/c1ccc(C#N)cc1 | inconclusive: 23.1 µM [inhibitor, single point] | –
54 | Cc1[nH]c(=S)c(C#N)c(C)c1CC(=O)c1ccc(Br)cc1 | inactive | –
55 | CCc1ccc2c(c1)NC(=O)C2(C)Cc1ccc(F)cc1 (centres undefined) | inconclusive: 16.4 µM [inhibitor, single point] | –
56 | CCC(=O)Nc1ccc(CC)cc1-c1nc2ccccc2n(CC(=O)c2ccc(OC)cc2)c1=O | inactive | –
57 | CCn1c(CCNC(=O)c2ccc(OC)c(OC)c2)nc2ccccc21 | inconclusive: 20.6 µM [inhibitor, partial curve] | –
58 | CCN1CCN(c2ccc(S(=O)(=O)N3CCCCC3)cc2NC(=O)c2cccc(Cl)c2)CC1 | inconclusive: 23.1 µM [inhibitor, single point] | –
59 | Cc1cc(OCC(=O)Nc2ccccc2N2CCOCC2)c(C(C)C)cc1Cl | active: 14.6 µM | –
60 | COC(=O)C1(CC2CC(c3cccc(Br)c3)=NO2)CCN(C(=O)OC(C)(C)C)CC1 (centres undefined) | inconclusive: 23.1 µM [inhibitor, single point] | –
61 | Cc1cc(C)cc(OCC(=O)NCc2cc(C)nc3ccccc23)c1 | inconclusive: 29.1 µM [inhibitor, single point] | –
62 | COc1ccc(C2=NN(CCC(=O)NCC3CCCO3)C(=O)CC2)cc1 (centres undefined) | inactive | –
63 | CC(C)C[C@H](NC(=O)CNC(=O)[C@H](Cc1ccc(O)cc1)NC(=O)[C@H](CO)NC(=O)[C@H](Cc1c[nH]c2ccccc12)NC(=O)[C@H](Cc1cnc[nH]1)NC(=O)[C@@H]1CCC(=O)N1)C(=O)N[C@@H](CCCN=C(N)N)C(=O)N1CCC[C@H]1C(=O)NCC(N)=O (stereo in doubt) | inactive | –
64 | CCCNC(=O)c1nn2c(C(F)(F)F)cc(-c3ccccc3)nc2c1Br | inconclusive: 29.1 µM [inhibitor, single point] | –
